Results reported in the supplement of paper PMC7826260.
This is one part of the list. The data describe in vitro nicking of single-stranded DNA by Rep domains at 3 µM enzyme and 37 °C for 1 h; the strands have 90 letters, of which the middle is given. Uncut reads are compared with the no-enzyme pool on a log2 scale; more negative means more cut, near 0 not cut, and no call is made. Reads are scaled to the total; uncut strands gain when others are lost, and binding without cutting may add a little.

Experiments:
Experiment in all cases: uncleaved DNA left, log2 of reads against the no-enzyme library (log2 ratio); higher = less cleavage (more negative = more Rep cleavage of the k-mer); sequences stand for … in CTCGTCCG…ACCGGAGA
[1] = system: T1, Rep nickase domain of Muscovy duck circovirus
T1 sequence (residues 1-111 of Rep, tag left off): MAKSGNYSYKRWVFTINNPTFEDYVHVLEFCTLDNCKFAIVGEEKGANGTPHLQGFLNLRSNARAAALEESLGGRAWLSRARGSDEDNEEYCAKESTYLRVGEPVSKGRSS
Protocol: (§1)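 A pool of 90-nt single-stranded DNAs with seven random bases just before the constant AC of the nick site (name = the seven bases) was cut by 3 µM recombinant His6-SUMO-tagged Rep nickase domain (300 nM DNA, 50 mM HEPES pH 8.0, 50 mM NaCl, 1 mM MnCl2, 1 h, 37 °C, three replicates). Uncut DNA was amplified and sequenced.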

[2] = system: T2, Rep nickase domain of banana bunchy top virus
T2 sequence (residues 1-94 of Rep, tag left off): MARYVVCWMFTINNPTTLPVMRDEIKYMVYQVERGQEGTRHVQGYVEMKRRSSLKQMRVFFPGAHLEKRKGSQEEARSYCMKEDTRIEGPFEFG
Protocol: as §1

[3] = system: T3, Rep nickase domain of cabbage leaf curl virus
T3 sequence (residues 1-116 of Rep, tag left off): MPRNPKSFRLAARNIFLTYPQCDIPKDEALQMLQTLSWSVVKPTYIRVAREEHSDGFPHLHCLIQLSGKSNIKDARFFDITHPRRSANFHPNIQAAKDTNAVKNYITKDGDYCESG
Protocol: as §1

[4] = system: T4, Rep nickase domain of chickpea chlorotic dwarf virus
T4 sequence (residues 1-124 of Rep, tag left off): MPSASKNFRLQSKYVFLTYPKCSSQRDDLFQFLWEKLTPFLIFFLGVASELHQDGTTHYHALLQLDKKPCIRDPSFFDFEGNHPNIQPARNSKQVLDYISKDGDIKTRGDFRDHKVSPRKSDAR
Protocol: as §1

[5] = system: T5, Rep nickase domain of faba bean necrotic yellows virus
T5 sequence (residues 1-98 of Rep, tag left off): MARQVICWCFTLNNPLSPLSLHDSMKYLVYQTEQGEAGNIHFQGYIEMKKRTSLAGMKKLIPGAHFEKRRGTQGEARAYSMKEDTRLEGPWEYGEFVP
Protocol: as §1

[6] = system: T6, Rep nickase domain of maize striate mosaic virus
T6 sequence (residues 1-117 of Rep, tag left off): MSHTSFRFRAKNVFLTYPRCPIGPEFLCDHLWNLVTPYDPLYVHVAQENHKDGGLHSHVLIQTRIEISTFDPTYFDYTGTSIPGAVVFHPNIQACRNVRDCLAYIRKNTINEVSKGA
Protocol: as §1

[7] = system: T7, Rep nickase domain of porcine circovirus 2
T7 sequence (residues 2-116 of Rep, tag left off): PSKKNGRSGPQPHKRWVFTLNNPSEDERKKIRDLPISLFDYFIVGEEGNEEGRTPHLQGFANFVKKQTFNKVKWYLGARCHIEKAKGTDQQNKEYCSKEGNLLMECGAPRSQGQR
Protocol: as §1

[8] = system: T8, Rep nickase domain of tomato golden mosaic virus
T8 sequence (residues 1-124 of Rep, tag left off): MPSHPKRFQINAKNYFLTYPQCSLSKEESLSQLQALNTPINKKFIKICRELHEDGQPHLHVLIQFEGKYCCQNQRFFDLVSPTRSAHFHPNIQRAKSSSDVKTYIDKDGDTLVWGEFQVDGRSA
Protocol: as §1

[9] = system: T9, Rep nickase domain of tomato yellow leaf curl virus
T9 sequence (residues 1-136 of Rep, tag left off): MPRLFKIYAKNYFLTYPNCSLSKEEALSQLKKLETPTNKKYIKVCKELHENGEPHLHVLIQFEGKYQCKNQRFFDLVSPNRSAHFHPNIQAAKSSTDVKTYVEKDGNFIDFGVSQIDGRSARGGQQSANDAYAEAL
Protocol: as §1

[10] = system: T10, Rep nickase domain of wheat dwarf virus
T10 sequence (residues 1-137 of Rep, tag left off): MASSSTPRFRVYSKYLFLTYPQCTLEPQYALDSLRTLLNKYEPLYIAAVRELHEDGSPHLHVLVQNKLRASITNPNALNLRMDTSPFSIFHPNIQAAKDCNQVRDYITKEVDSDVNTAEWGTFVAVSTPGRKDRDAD
Protocol: as §1

Sequence | uncleaved DNA left (log2) [1] | uncleaved DNA left (log2) [2] | uncleaved DNA left (log2) [3] | uncleaved DNA left (log2) [4] | uncleaved DNA left (log2) [5] | uncleaved DNA left (log2) [6] | uncleaved DNA left (log2) [7] | uncleaved DNA left (log2) [8] | uncleaved DNA left (log2) [9] | uncleaved DNA left (log2) [10]
CTCCGGA | 0.0112 | 0.00638 | 0.198 | 0.453 | -0.0778 | 0.428 | 0.141 | 0.0156 | 0.000869 | -0.016
TCTATTT | -0.149 | 0.00223 | -0.0949 | -2.45 | 0.00339 | -0.422 | -0.965 | 0.00772 | 0.0156 | -0.24
CTAGGAT | 0.175 | 0.127 | 0.448 | 1.79 | 0.141 | 1.94 | 0.241 | 0.234 | -0.175 | 0.0934
CGATTCC | -0.257 | -0.171 | -0.0493 | -0.0214 | -0.0479 | -0.56 | -0.551 | -0.221 | -0.0622 | -0.0428
TGATGTC | 0.0344 | -0.0281 | 0.182 | 0.257 | 0.0407 | -0.014 | 0.0478 | 0.0168 | 0.0364 | 0.0621
CCTTTTT | -2.95 | -0.487 | -0.169 | -2.5 | 0.0726 | -0.731 | -2.92 | -0.135 | 0.0271 | -0.093
CACAAGC | -0.0579 | 0.0207 | -0.156 | -0.35 | -0.0565 | -1.07 | 0.0914 | -0.0603 | -0.0628 | -0.00991
CGTCCGG | 0.0687 | 0.0513 | 0.371 | 1.06 | -0.0379 | 1.21 | 0.0417 | 0.0852 | -0.0553 | 0.00275
TAGCAGT | -0.0914 | 0.048 | -0.207 | -1.2 | -0.000147 | -0.841 | -3.1 | -0.0686 | 0.12 | -0.0215
TTGTCTG | -0.0026 | -0.00878 | -0.124 | 0.0925 | 0.0286 | -0.21 | 0.122 | -0.022 | -0.134 | -0.121
TTTCTAG | 0.115 | 0.0863 | -0.565 | -0.606 | 0.22 | -1.1 | 0.207 | 0.13 | 0.115 | 0.116
CCATTGA | 0.000717 | 0.0112 | -0.557 | -0.158 | 0.103 | -0.956 | 0.272 | -0.00284 | 0.16 | 0.0385
AATAGTA | -0.111 | -0.0409 | -0.246 | -1.95 | -0.0859 | -1.05 | -0.31 | -0.0327 | -0.0491 | -0.0682
CTATGGT | -0.401 | -0.0565 | -0.33 | -0.154 | -0.0745 | 0.424 | -0.968 | -0.128 | -0.0133 | -0.0314
GTGTAAC | -0.0756 | 0.0666 | 0.252 | 0.768 | -0.0251 | 1.86 | 0.0598 | 0.0965 | 0.0643 | 0.0897
TTGCGCT | -0.0415 | -0.176 | -0.826 | -0.0607 | 0.0154 | -0.794 | 0.0888 | -0.108 | 0.0817 | -0.117
GTTGCAC | 0.0155 | 0.064 | 0.0827 | 0.56 | -0.0188 | 0.215 | 0.011 | -0.0672 | 0.0747 | 0.0566
GTAGCTG | 0.105 | 0.0264 | 0.372 | 1.44 | 0.103 | 1.73 | 0.176 | 0.117 | -0.126 | 0.141
TATCCTC | 0.00473 | -0.0605 | 0.016 | -0.3 | -0.0457 | -0.167 | -0.122 | -0.116 | -0.0251 | 0.0257
TGACACA | 0.108 | 0.0982 | 0.188 | 0.0357 | 0.0818 | 0.821 | -0.0351 | 0.0679 | 0.133 | 0.0844
AGACCAA | 0.0368 | 0.0737 | 0.662 | 1.05 | -0.0326 | 1.83 | 0.0453 | 0.051 | 0.168 | 0.113
GCGGACC | 0.0619 | 0.0973 | 0.565 | 1.56 | -0.0288 | 1.84 | 0.168 | 0.0634 | 0.0224 | 0.16
ACGAGAA | 0.0208 | -0.0993 | -0.0509 | 0.267 | -0.0207 | -0.297 | -0.128 | -0.0966 | -0.173 | -0.0258
CGTTTCT | -1.15 | -0.0497 | 0.124 | -1.17 | -0.0524 | -0.138 | -1.52 | 0.0303 | 0.0931 | 0.0957
TCCAATC | 0.0659 | 0.224 | 0.0581 | 0.229 | 0.0891 | -0.177 | 0.224 | 0.126 | 0.18 | 0.156
TTGAATC | 0.108 | 0.0437 | 0.161 | 0.138 | 0.0111 | -0.535 | -0.0535 | -0.0213 | 0.0408 | 0.0474
CGGTGGA | 0.0439 | -0.0215 | 0.31 | 0.607 | 0.193 | 0.547 | 0.132 | 0.0997 | -0.0657 | -0.0155
AAGGCTT | 0.0507 | -0.0907 | 0.255 | 0.623 | -0.00928 | 1.5 | -1.88 | 0.173 | -0.0739 | 0.0491
AATGTCC | -0.0274 | 0.0556 | 0.188 | 1.2 | -0.0685 | 0.944 | 0.0129 | 0.0566 | 0.0483 | 0.0178
GTTATTT | 0.02 | 0.113 | 0.297 | 0.724 | -0.0301 | 1.73 | 0.0202 | 0.0857 | -0.00735 | 0.116
